# Measurements taken from the supplement of paper PMC12217912.
# Some of the results follow. Sequences were assembled here from the parent chain. Inactive controls read about 0.05.
# B1: TEV protease; numbered along this chain (parent)
# chain: MGESLFKGPRDYNPISSSICHLTNESDGHTTSLYGIGFGPFIITNKHLFRRNNGTLVVQSLHGVFKVKDTTTLQQHLVDGRDMIIIRMPKDFPPFPQKLKFREPQREERICLVTTNFQTKSMSSMVSDTSCTFPSGDGIFWKHWIQTKDGQCGSPLVSTRDGFIVGIHSASNFTNTNNYFTSVPKNFMELLTNQEAQQWVSGWRLNADSVLWGGHKVFMVKPEEPFQPVKEATQL
# Variants of: B1
# Assay: raw area under fraction-flipped curve 0-4 h after induction (AUC4h, not background-subtracted), DNA-recorder readout of cleavage of the substrate (dimensionless); higher = more cleavage of the substrate by the protease variant
# Settings: temperature: 34 °C; time window: 0-4 h after rhamnose induction
# Protocol: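 In vivo DNA recorder in E. coli TOP10(DE3) ΔrhaA at 34 °C. Each TEVp single-site mutant (parent TEVp 0) is paired with a single-site variant of the 7-mer TEVs (canonical ENLYFQ|S). The substrate sits between flexible linkers in a Bxb1-sfGFP-TEVs-SsrA fusion, so cleavage stabilises Bxb1 and speeds flipping of a recombination array, read by NGS. The value is the raw area under the fraction-flipped curve over 0-4 h after rhamnose induction (AUC4h), with ≥20 reads per time point. It is not background-subtracted; inactive controls average about 0.047.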
# 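Further: Bxb1 expression induced with 0.2% (w/v) L-rhamnose at OD600 near 0.5, cultures sampled hourly, flipped fraction per protease–substrate barcode pair counted by paired-end Illumina sequencing.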
Variant,area with substrate CNLYFQS,area with substrate DNLYFQS,area with substrate GNLYFQS,area with substrate HNLYFQS,area with substrate INLYFQS,area with substrate KNLYFQS,area with substrate LNLYFQS,area with substrate MNLYFQS,area with substrate NNLYFQS,area with substrate PNLYFQS,area with substrate QNLYFQS,area with substrate SNLYFQS,area with substrate TNLYFQS,area with substrate WNLYFQS,area with substrate FNLYFQS,area with substrate YNLYFQS,area with substrate VNLYFQS,area with substrate RNLYFQS
K148Q,0.0692,0.0879,0.0693,0.0604,0.0713,0.0835,0.0988,0.0414,0.0754,0.0649,0.0655,0.0661,0.0578,0.0581,–,–,–,–
K148R,0.0625,0.0657,0.053,0.0697,–,–,–,0.0927,0.0611,0.0698,0.0661,–,0.0697,0.0535,0.0603,0.0584,–,–
D149Y,0.0678,0.072,0.0617,0.0489,0.0575,0.0688,0.0626,0.07,0.0531,0.0607,–,0.0677,0.0451,0.057,–,–,0.0525,–
G150H,0.0609,0.0799,0.0644,0.041,0.0573,0.0697,0.0537,–,0.0618,0.125,–,0.0616,0.0634,0.0498,0.0599,0.0584,0.061,–
G150V,0.0638,0.0381,0.0514,0.0623,–,0.0649,0.0587,0.0634,0.0568,0.0622,–,0.0477,0.0623,0.0528,0.0564,0.0548,–,0.0525
Q151E,0.0709,0.09,0.0605,0.0614,0.0642,–,0.0647,–,0.0619,0.0647,–,–,0.0521,0.0491,0.0633,0.0576,0.0934,–
Q151M,0.0372,0.0878,0.0789,0.0636,–,–,0.091,0.0534,–,0.0595,–,–,–,–,0.0547,0.0589,0.076,–
C152P,0.0487,0.0541,0.0449,0.0499,0.0588,–,–,0.0536,0.0665,0.0575,–,–,–,0.0568,–,0.0495,–,–
S154H,0.0574,0.0582,–,0.0651,–,0.0556,–,0.0657,0.0726,0.052,0.0386,0.0672,0.0634,0.0623,0.0617,0.0547,0.0532,–
S154W,0.0614,0.0574,–,0.0543,–,0.0494,0.064,0.0595,0.0654,0.0869,–,0.0591,0.0633,0.0629,–,0.058,–,–
P155D,0.0528,0.0523,0.0472,0.0491,0.0514,0.0604,0.0456,0.0609,0.0536,0.05,–,0.038,0.0485,0.0513,–,0.0529,0.0624,–
P155K,0.0571,0.0434,0.0691,0.0463,0.042,0.054,0.0676,0.0676,–,0.0583,–,–,0.0533,0.0518,0.0343,0.0411,0.0475,–
L156E,0.0603,0.0533,0.0599,0.0626,0.0428,0.0509,0.0526,0.0541,0.0558,0.0435,–,0.0688,0.0484,0.057,0.0485,0.048,0.063,0.0545
L156H,0.0601,0.026,0.0582,0.0664,0.0524,0.0596,0.0548,–,–,0.046,0.0501,0.0636,0.0715,0.0104,–,0.0499,0.0639,–
L156Q,0.0475,0.051,0.0547,0.0791,0.0461,0.064,–,–,0.0537,0.0478,–,–,0.0568,0.0454,0.0248,–,0.0542,0.0552
V157D,0.0583,0.0451,0.0486,0.043,–,–,0.0464,0.043,–,0.0506,0.05,0.048,0.0505,0.0483,–,0.0465,0.0527,0.0387
V157L,0.0737,0.0653,0.0815,0.0617,0.0534,0.0625,0.0578,0.0685,0.0103,–,–,0.0704,0.0557,0.0574,0.0611,0.062,–,–
V157S,0.0813,0.0631,0.0553,0.0402,0.0487,–,0.0586,–,0.0552,0.0695,–,0.0507,–,0.0466,–,0.065,–,0.0563
S158G,0.0646,0.0747,–,0.0743,0.0718,0.0714,0.0559,0.0709,–,–,–,0.0644,0.0673,0.0478,0.069,0.0643,–,–
D161A,0.0591,0.0598,–,–,0.0505,0.0492,0.051,0.0573,0.061,0.0384,–,0.0626,0.0436,0.0533,0.049,–,–,–
D161W,0.0538,0.0471,0.0596,0.0508,0.0551,0.0434,0.0737,0.0483,0.0473,0.0514,0.0466,0.05,0.0479,0.0573,0.039,0.0487,0.0374,0.0569
G162P,0.0437,0.0635,–,0.0581,0.0423,0.0488,–,0.0647,0.0074,0.0542,–,0.0489,0.0608,0.0604,0.0284,0.0427,0.0532,–
I164D,0.057,0.0567,0.0607,0.0593,0.0567,0.0638,0.0562,–,0.0526,0.058,–,0.0694,0.0616,0.0544,–,0.0539,0.0604,–
V165R,0.0527,0.0424,0.0494,0.0517,–,0.082,0.0519,–,0.0407,0.0545,–,0.0593,0.0565,0.0559,–,0.0691,–,–
V165T,0.07,0.0698,–,0.0622,0.0685,0.0742,0.0589,0.0436,0.0469,0.0604,–,0.061,0.0572,0.0525,0.0653,–,0.0325,0.0652
G166A,0.0498,0.0552,0.0427,0.0496,0.0455,0.0631,0.0514,–,0.0477,–,–,0.0503,0.047,0.0349,–,0.0288,0.057,–
